# This is one part of the list.
# B1: ConA (Canavalia ensiformis), P02866 (protein)
# chain: MAISKKSSLFLPIFTFITMFLMVVNKVSSSTHETNALHFMFNQFSKDQKDLILQGDATTGTDGNLELTRVSSNGSPQGSSVGRALFYAPVHIWESSAVVASFEATFTFLIKSPDSHPADGIAFFISNIDSSIPSGSTGRLLGLFPDANVIRNSTTIDFNAAYNADTIVAVELDTYPNTDIGDPSYPHIGIDIKSVRSKKTAKWNMQNGKVGTAHIIYNSVDKRLSAVVSYPNADSATVSYDVDLDNVLPEWVRVGLSASTGLYKETNTILSWSFTSKLKSNEIPDIATVV
# How the values were obtained:
# Assay in all cases: glycan array binding signal (z-score within array); higher = stronger binding
# Conditions in all cases: glycan notation: IUPAC condensed, linker removed
# Gal(b1-3)Gal(b1-4)GlcNAc = biological target: Gal(b1-3)Gal(b1-4)GlcNAc
# In short: (§1)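 From the Consortium for Functional Glycomics database, 3228 arrays were curated, keeping only those whose protein sequence was available. Binding is given as a within-array Z-score averaged across arrays sharing a protein sequence and across linkers. Negative Z-scores can be read as non-binding.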
# [1] = biological target: Gal(b1-3)Gal(b1-4)GlcNAc(b1-2)Man(a1-3)[Gal(b1-3)Gal(b1-4)GlcNAc(b1-2)Man(a1-6)]Man(b1-4)GlcNAc(b1-4)GlcNAc
# In short: as §1
# Gal(b1-3)GalNAc = biological target: Gal(b1-3)GalNAc
# In short: as §1
# [2] = biological target: Gal(b1-3)GalNAc(a1-3)[Fuc(a1-2)]Gal(b1-4)Glc
# In short: as §1
# [3] = biological target: Gal(b1-3)GalNAc(a1-3)[Fuc(a1-2)]Gal(b1-4)GlcNAc
# In short: as §1
# [4] = biological target: Gal(b1-3)GalNAc(b1-3)Gal(a1-4)Gal(b1-4)Glc
# In short: as §1
# [5] = biological target: Gal(b1-3)GalNAc(b1-4)Gal(b1-4)Glc
# In short: as §1
# [6] = biological target: Gal(b1-3)GalNAc(b1-4)[Neu5Ac(a2-3)]Gal(b1-4)Glc
# In short: as §1
# Gal(b1-3)GlcNAc = biological target: Gal(b1-3)GlcNAc
# In short: as §1
# [7] = biological target: Gal(b1-3)GlcNAc(a1-6)Gal(b1-4)GlcNAc
# In short: as §1
# [8] = biological target: Gal(b1-3)GlcNAc(b1-2)Man(a1-3)[Gal(b1-3)GlcNAc(b1-2)Man(a1-6)]Man(b1-4)GlcNAc(b1-4)GlcNAc
# In short: as §1
# [9] = biological target: Gal(b1-3)GlcNAc(b1-2)Man(a1-3)[Gal(b1-3)GlcNAc(b1-2)Man(a1-6)]Man(b1-4)GlcNAc(b1-4)[Fuc(a1-6)]GlcNAc
# In short: as §1
# [10] = biological target: Gal(b1-3)GlcNAc(b1-2)[Gal(b1-3)GlcNAc(b1-6)]Man(a1-6)[Gal(b1-3)GlcNAc(b1-2)Man(a1-3)]Man(b1-4)GlcNAc(b1-4)GlcNAc
# In short: as §1
# [11] = biological target: Gal(b1-3)GlcNAc(b1-3)Gal(b1-3)GlcNAc
# In short: as §1
# [12] = biological target: Gal(b1-3)GlcNAc(b1-3)Gal(b1-4)Glc
# In short: as §1
# [13] = biological target: Gal(b1-3)GlcNAc(b1-3)Gal(b1-4)GlcNAc
# In short: as §1
# [14] = biological target: Gal(b1-3)GlcNAc(b1-3)Gal(b1-4)GlcNAc(b1-6)[Gal(b1-3)GlcNAc(b1-3)]Gal(b1-4)Glc
# In short: as §1
# [15] = biological target: Gal(b1-3)GlcNAc(b1-3)Gal(b1-4)[Fuc(a1-3)]GlcNAc(b1-6)[Gal(b1-3)GlcNAc(b1-3)]Gal(b1-4)Glc
# In short: as §1
# [16] = biological target: Gal(b1-3)GlcNAc(b1-3)GalNAc
# In short: as §1
# [17] = biological target: Gal(b1-3)GlcNAc(b1-6)Gal(b1-4)GlcNAc
# In short: as §1
# [18] = biological target: Gal(b1-3)[Fuc(a1-4)]GlcNAc
# In short: as §1
# [19] = biological target: Gal(b1-3)[Fuc(a1-4)]GlcNAc(b1-2)Man(a1-3)[Gal(b1-3)[Fuc(a1-4)]GlcNAc(b1-2)Man(a1-6)]Man(b1-4)GlcNAc(b1-4)GlcNAc
# In short: as §1
# [20] = biological target: Gal(b1-3)[Fuc(a1-4)]GlcNAc(b1-2)Man(a1-3)[Gal(b1-3)[Fuc(a1-4)]GlcNAc(b1-2)Man(a1-6)]Man(b1-4)GlcNAc(b1-4)[Fuc(a1-6)]GlcNAc
# In short: as §1
# [21] = biological target: Gal(b1-3)[Fuc(a1-4)]GlcNAc(b1-3)Gal(b1-3)[Fuc(a1-4)]GlcNAc
# In short: as §1
# [22] = biological target: Gal(b1-3)[Fuc(a1-4)]GlcNAc(b1-3)Gal(b1-4)GlcNAc
# In short: as §1
# [23] = biological target: Gal(b1-3)[Fuc(a1-4)]GlcNAc(b1-3)Gal(b1-4)[Fuc(a1-3)]GlcNAc
# In short: as §1
# [24] = biological target: Gal(b1-3)[GlcNAc(b1-6)]GalNAc
# In short: as §1
# [25] = biological target: Gal(b1-3)[Neu5Ac(a2-6)]GalNAc
# In short: as §1
# [26] = biological target: Gal(b1-3)[Neu5Ac(a2-6)]GlcNAc(b1-6)Gal(b1-4)Glc
# In short: as §1
# [27] = biological target: Gal(b1-3)[Neu5Ac(b2-6)]GalNAc
# In short: as §1
# Gal(b1-4)Gal = biological target: Gal(b1-4)Gal
# In short: as §1
# [28] = biological target: Gal(b1-4)GalNAc(a1-3)[Fuc(a1-2)]Gal(b1-4)GlcNAc
# In short: as §1
# [29] = biological target: Gal(b1-4)GalNAc(b1-3)[Fuc(a1-2)]Gal(b1-4)GlcNAc
# In short: as §1
# Gal(b1-4)Glc = biological target: Gal(b1-4)Glc
# In short: as §1
# Gal(b1-4)Glc6S = biological target: Gal(b1-4)Glc6S
# In short: as §1
# Gal(b1-4)GlcNAc = biological target: Gal(b1-4)GlcNAc
# In short: as §1
# [30] = biological target: Gal(b1-4)GlcNAc(a1-6)Gal(b1-4)GlcNAc
# In short: as §1
# Gal(b1-4)GlcNAc(b1-2)Man = biological target: Gal(b1-4)GlcNAc(b1-2)Man
# In short: as §1
binder,measurement,setting,value
B1,glycan array binding signal (z-score),Gal(b1-3)Gal(b1-4)GlcNAc,-0.27
same,glycan array binding signal (z-score),[1],0.087
same,glycan array binding signal (z-score),Gal(b1-3)GalNAc,-0.272
same,glycan array binding signal (z-score),[2],-0.248
same,glycan array binding signal (z-score),[3],-0.247
same,glycan array binding signal (z-score),[4],-0.272
same,glycan array binding signal (z-score),[5],-0.28
same,glycan array binding signal (z-score),[6],-0.24
same,glycan array binding signal (z-score),Gal(b1-3)GlcNAc,-0.295
same,glycan array binding signal (z-score),[7],-0.245
same,glycan array binding signal (z-score),[8],0.916
same,glycan array binding signal (z-score),[9],0.562
same,glycan array binding signal (z-score),[10],-0.189
same,glycan array binding signal (z-score),[11],-0.197
same,glycan array binding signal (z-score),[12],-0.299
same,glycan array binding signal (z-score),[13],-0.264
same,glycan array binding signal (z-score),[14],-0.168
same,glycan array binding signal (z-score),[15],-0.18
same,glycan array binding signal (z-score),[16],-0.238
same,glycan array binding signal (z-score),[17],-0.229
same,glycan array binding signal (z-score),[18],-0.274
same,glycan array binding signal (z-score),[19],-0.093
same,glycan array binding signal (z-score),[20],0.603
same,glycan array binding signal (z-score),[21],-0.207
same,glycan array binding signal (z-score),[22],-0.285
same,glycan array binding signal (z-score),[23],-0.296
same,glycan array binding signal (z-score),[24],-0.234
same,glycan array binding signal (z-score),[25],-0.129
same,glycan array binding signal (z-score),[26],-0.273
same,glycan array binding signal (z-score),[27],-0.273
same,glycan array binding signal (z-score),Gal(b1-4)Gal,-0.213
same,glycan array binding signal (z-score),[28],-0.281
same,glycan array binding signal (z-score),[29],-0.258
same,glycan array binding signal (z-score),Gal(b1-4)Glc,-0.273
same,glycan array binding signal (z-score),Gal(b1-4)Glc6S,-0.273
same,glycan array binding signal (z-score),Gal(b1-4)GlcNAc,-0.225
same,glycan array binding signal (z-score),[30],-0.187
same,glycan array binding signal (z-score),Gal(b1-4)GlcNAc(b1-2)Man,-0.193

# From the supplement of paper PMC8728848
